In article PMC9911399, “Two distinct binding modes provide the RNA-binding protein RbFox with extraordinary sequence specificity” one finds binding signal data, which are given here for 20 molecules.

The chains are these.
T1: RBFOX1 RRM RbFoxmut (Fox-RRM*) (Homo sapiens, UniProt Q9NWB1 109-208, R118D;E147R;N151S;E152T)
T1 sequence: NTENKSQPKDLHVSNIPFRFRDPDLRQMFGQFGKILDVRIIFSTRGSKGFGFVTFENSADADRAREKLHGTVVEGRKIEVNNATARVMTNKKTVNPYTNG

B1: CCAUCCU (DNA:RNA)
RNA: GGGAGACCGGAAUUCAGAUUGUCCCCAUCCUUUAAAUCCCGUCGUAGCCACCA
DNA 1: CAATCTGAATTCCGGTCTCCC
DNA 2: TGGTGGCTACGACGGGATT
B2: AACUCAA (DNA:RNA)
RNA: B1 RNA with C25A, C26A, A27C, C30A, U31A
DNA 1: CAATCTGAATTCCGGTCTCCC
DNA 2: TGGTGGCTACGACGGGATT
B3: AAUGGGU (DNA:RNA)
RNA: B1 RNA with C25A, C26A, A27U, U28G, C29G, C30G
DNA 1: CAATCTGAATTCCGGTCTCCC
DNA 2: TGGTGGCTACGACGGGATT
B4: GUUACUU (DNA:RNA)
RNA: B1 RNA with C25G, C26U, A27U, U28A, C30U
DNA 1: CAATCTGAATTCCGGTCTCCC
DNA 2: TGGTGGCTACGACGGGATT
B5: AAAUUAG (DNA:RNA)
RNA: B1 RNA with C25A, C26A, C29U, C30A, U31G
DNA 1: CAATCTGAATTCCGGTCTCCC
DNA 2: TGGTGGCTACGACGGGATT
B6: AAACGAC (DNA:RNA)
RNA: B1 RNA with C25A, C26A, U28C, C29G, C30A, U31C
DNA 1: CAATCTGAATTCCGGTCTCCC
DNA 2: TGGTGGCTACGACGGGATT
B7: CAUUCUU (DNA:RNA)
RNA: B1 RNA with C26A, A27U, C30U
DNA 1: CAATCTGAATTCCGGTCTCCC
DNA 2: TGGTGGCTACGACGGGATT
B8: AGCAUGA (DNA:RNA)
RNA: GGGAGACCGGAAUUCAGAUUGUCCAGCAUGAUUAAAUCCCGUCGUAGCCACCA
DNA 1: CAATCTGAATTCCGGTCTCCC
DNA 2: TGGTGGCTACGACGGGATT
B9: UUUAUUA (DNA:RNA)
RNA: B8 RNA with A25U, G26U, C27U, G30U
DNA 1: CAATCTGAATTCCGGTCTCCC
DNA 2: TGGTGGCTACGACGGGATT
B10: CGGCAGC (DNA:RNA)
RNA: B8 RNA with A25C, C27G, A28C, U29A, A31C
DNA 1: CAATCTGAATTCCGGTCTCCC
DNA 2: TGGTGGCTACGACGGGATT
B11: GUCAAAU (DNA:RNA)
RNA: B8 RNA with A25G, G26U, U29A, G30A, A31U
DNA 1: CAATCTGAATTCCGGTCTCCC
DNA 2: TGGTGGCTACGACGGGATT
B12: CAUCAGC (DNA:RNA)
RNA: B8 RNA with A25C, G26A, C27U, A28C, U29A, A31C
DNA 1: CAATCTGAATTCCGGTCTCCC
DNA 2: TGGTGGCTACGACGGGATT
B13: UAUACAU (DNA:RNA)
RNA: B1 RNA with C25U, C26A, A27U, U28A, C30A
DNA 1: CAATCTGAATTCCGGTCTCCC
DNA 2: TGGTGGCTACGACGGGATT
B14: CAAUCAC (DNA:RNA)
RNA: B1 RNA with C26A, C30A, U31C
DNA 1: CAATCTGAATTCCGGTCTCCC
DNA 2: TGGTGGCTACGACGGGATT
B15: UCAAACA (DNA:RNA)
RNA: B1 RNA with C25U, U28A, C29A, U31A
DNA 1: CAATCTGAATTCCGGTCTCCC
DNA 2: TGGTGGCTACGACGGGATT
B16: CUUGAGC (DNA:RNA)
RNA: B8 RNA with A25C, G26U, C27U, A28G, U29A, A31C
DNA 1: CAATCTGAATTCCGGTCTCCC
DNA 2: TGGTGGCTACGACGGGATT
B17: UCGUUCU (DNA:RNA)
RNA: B1 RNA with C25U, A27G, C29U
DNA 1: CAATCTGAATTCCGGTCTCCC
DNA 2: TGGTGGCTACGACGGGATT
B18: UAUCUAG (DNA:RNA)
RNA: B8 RNA with A25U, G26A, C27U, A28C, G30A, A31G
DNA 1: CAATCTGAATTCCGGTCTCCC
DNA 2: TGGTGGCTACGACGGGATT
B19: UGCCUUG (DNA:RNA)
RNA: B8 RNA with A25U, A28C, G30U, A31G
DNA 1: CAATCTGAATTCCGGTCTCCC
DNA 2: TGGTGGCTACGACGGGATT
B20: CCCUAAA (DNA:RNA)
RNA: B1 RNA with A27C, C29A, C30A, U31A
DNA 1: CAATCTGAATTCCGGTCTCCC
DNA 2: TGGTGGCTACGACGGGATT

Positions count from the first letter of the chain named. Some of the results follow.

The target of the test is T1, RBFOX1 RRM RbFoxmut (Fox-RRM*). Briefly: EMSA; HiTS-Eq, 1 nM pool, 10 min; buffer printed only for the single-RNA assays: 10 mM Tris pH 7.5, 150 mM NaCl, 3.4 mM EDTA, 0.001% NP-40, 30 C. To be noted: tags: His6 N-terminal (pET28a); label: 5' 32P. The essentials: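 Purified RbFox RRM, wild type or mutant, was incubated for 10 min in 50 µL with 1 nM of a 5′-radiolabelled RNA pool carrying 7 randomized nucleotides, whose flanks were annealed to DNA oligonucleotides, over a series of increasing protein concentrations. Unbound RNA was resolved on 8% native PAGE, cut out, reverse-transcribed, barcoded by PCR and sequenced on an Illumina HiSeq 2500. Relative association constants were derived from changes in read counts for each RNA species versus the control reaction and normalised to the cognate motif.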
A general note: A gel shift assay detects complexes by their altered migration in electrophoresis.
Take B1: the binding signal is 0.117 KA relative to UGCAUGU.

With B2, the binding signal was 0.0649 KA relative to UGCAUGU.

Consider B3, for which the binding signal is 0.113 KA relative to UGCAUGU.

For B4, the binding signal was 0.0798 KA relative to UGCAUGU.

Take B5: the binding signal was 0.0958 KA relative to UGCAUGU.

In the case of B6, the binding signal was 0.0442 KA relative to UGCAUGU.

Take B7: the binding signal is 0.101 KA relative to UGCAUGU.

In the case of B8, the binding signal was 0.524 KA relative to UGCAUGU.

B9: the binding signal was 0.15 KA relative to UGCAUGU.

On to B10, for which the binding signal was 0.0797 KA relative to UGCAUGU.

Regarding B11, the binding signal was 0.0975 KA relative to UGCAUGU.

With B12, the binding signal is 0.0653 KA relative to UGCAUGU.

As for B13, the binding signal was 0.0638 KA relative to UGCAUGU.

On to B14, for which the binding signal is 0.0616 KA relative to UGCAUGU.

On to B15, for which the binding signal was 0.083 KA relative to UGCAUGU.

As for B16, the binding signal is 0.119 KA relative to UGCAUGU.

For B17, the binding signal is 0.0587 KA relative to UGCAUGU.

Turning to B18, the binding signal was 0.102 KA relative to UGCAUGU.

Regarding B19, the binding signal was 1.27 KA relative to UGCAUGU.

Regarding B20, the binding signal is 0.063 KA relative to UGCAUGU.
